# According to the supplement of paper PMC8728848:
# This is one part of the list.
# Assays:
# Assay in all cases: glycan array binding signal (z-score within array); higher = stronger binding
# Settings in all cases: glycan notation: IUPAC condensed, linker removed
# [1] = biological target: Gal(b1-4)GlcNAc(b1-6)GalNAc
# Summary of the method: (§1)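 The binding signal is a Z-score computed within each array and averaged over linkers. Arrays of the same protein sequence at different concentrations or buffers were also averaged together. Data originate from 3228 arrays in the Consortium for Functional Glycomics database, kept only where the protein sequence was available.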
# [2] = biological target: Gal(b1-4)GlcNAc(b1-6)[Gal(b1-3)]GalNAc
# Summary of the method: as §1
# [3] = biological target: Gal(b1-4)GlcNAc(b1-6)[Gal(b1-4)GlcNAc(b1-3)]GalNAc
# Summary of the method: as §1
# Gal(b1-4)GlcNAc6P = biological target: Gal(b1-4)GlcNAc6P
# Summary of the method: as §1
# Gal(b1-6)Gal = biological target: Gal(b1-6)Gal
# Summary of the method: as §1
# Gal3S(b1-3)GalNAc = biological target: Gal3S(b1-3)GalNAc
# Summary of the method: as §1
# Gal3S(b1-3)GlcNAc = biological target: Gal3S(b1-3)GlcNAc
# Summary of the method: as §1
# [4] = biological target: Gal3S(b1-3)[Fuc(a1-4)]GlcNAc
# Summary of the method: as §1
# Gal3S(b1-4)Glc = biological target: Gal3S(b1-4)Glc
# Summary of the method: as §1
# Gal3S(b1-4)Glc6S = biological target: Gal3S(b1-4)Glc6S
# Summary of the method: as §1
# Gal3S(b1-4)GlcNAc = biological target: Gal3S(b1-4)GlcNAc
# Summary of the method: as §1
# [5] = biological target: Gal3S(b1-4)[Fuc(a1-3)]Glc6S
# Summary of the method: as §1
# [6] = biological target: Gal3S(b1-4)[Fuc(a1-3)]GlcNAc
# Summary of the method: as §1
# [7] = biological target: Gal3S(b1-4)[Fuc(a1-3)]GlcNAc6S
# Summary of the method: as §1
# Gal3S4S(b1-4)GlcNAc = biological target: Gal3S4S(b1-4)GlcNAc
# Summary of the method: as §1
# Gal3S6S(b1-4)GlcNAc = biological target: Gal3S6S(b1-4)GlcNAc
# Summary of the method: as §1
# Gal3S6S(b1-4)GlcNAc6S = biological target: Gal3S6S(b1-4)GlcNAc6S
# Summary of the method: as §1
# Gal4S(b1-4)GlcNAc = biological target: Gal4S(b1-4)GlcNAc
# Summary of the method: as §1
# Gal4S6S(b1-4)GlcNAc = biological target: Gal4S6S(b1-4)GlcNAc
# Summary of the method: as §1
# Gal6P(b1-4)GlcNAc = biological target: Gal6P(b1-4)GlcNAc
# Summary of the method: as §1
# Gal6S(b1-3)GlcNAc = biological target: Gal6S(b1-3)GlcNAc
# Summary of the method: as §1
# Gal6S(b1-3)GlcNAc6S = biological target: Gal6S(b1-3)GlcNAc6S
# Summary of the method: as §1
# Gal6S(b1-4)Glc = biological target: Gal6S(b1-4)Glc
# Summary of the method: as §1
# Gal6S(b1-4)Glc6S = biological target: Gal6S(b1-4)Glc6S
# Summary of the method: as §1
# Gal6S(b1-4)GlcNAc = biological target: Gal6S(b1-4)GlcNAc
# Summary of the method: as §1
# Gal6S(b1-4)GlcNAc6S = biological target: Gal6S(b1-4)GlcNAc6S
# Summary of the method: as §1
# GalNAc(a1-3)Gal = biological target: GalNAc(a1-3)Gal
# Summary of the method: as §1
# GalNAc(a1-3)GalNAc = biological target: GalNAc(a1-3)GalNAc
# Summary of the method: as §1
# [8] = biological target: GalNAc(a1-3)GalNAc(b1-3)Gal(a1-4)Gal(b1-4)Glc
# Summary of the method: as §1
# [9] = biological target: GalNAc(a1-3)GalNAc(b1-3)Gal(a1-4)Gal(b1-4)GlcNAc
# Summary of the method: as §1
# GalNAc(b1-3)Gal = biological target: GalNAc(b1-3)Gal
# Summary of the method: as §1
# [10] = biological target: GalNAc(b1-3)Gal(a1-4)Gal(b1-4)GlcNAc
# Summary of the method: as §1
# [11] = biological target: GalNAc(b1-3)Gal(a1-4)Gal(b1-4)GlcNAc(b1-3)Gal(b1-4)Glc
# Summary of the method: as §1
# [12] = biological target: GalNAc(b1-3)Gal(a1-6)Gal(b1-4)Glc
# Summary of the method: as §1
# GalNAc(b1-3)GalNAc = biological target: GalNAc(b1-3)GalNAc
# Summary of the method: as §1
# GalNAc(b1-3)GlcNAc = biological target: GalNAc(b1-3)GlcNAc
# Summary of the method: as §1
# GalNAc(b1-4)Gal(b1-4)Glc = biological target: GalNAc(b1-4)Gal(b1-4)Glc
# Summary of the method: as §1
# GalNAc(b1-4)GlcNAc = biological target: GalNAc(b1-4)GlcNAc
# Summary of the method: as §1
binder,measurement,setting,value
Nc3LysM (protein) QFTVPPDTTAEPNTIKTCTWWHVAGSGDSCTSIASTYGITSEQFARWDMETTDSPKNPSVATACKLTVGNSYCIENNFGQDDPPTPSISSSTLIGTATTSTTASTTTGNGISTPTPIQEGMETATTTTSSGNGITTPTPTQAGMETVGNCDRFHLVKSGDQCGTIASTYGITLANFYSWNPAVGTSCQSLWLDTYVCVRTIGFVPPKTTTTTTKKPTSTTSAGGVATPTPTQPGMETVSGCKKFHKGRGNVSTVASGDQCGTIATRYGISLANFYSWNPAVGSSCQTLWLDYYVCVGR,glycan array binding signal (z-score),[1],0.01
same,glycan array binding signal (z-score),[2],-0.15
same,glycan array binding signal (z-score),[3],-0.065
same,glycan array binding signal (z-score),Gal(b1-4)GlcNAc6P,-0.025
same,glycan array binding signal (z-score),Gal(b1-6)Gal,-0.241
same,glycan array binding signal (z-score),Gal3S(b1-3)GalNAc,0.037
same,glycan array binding signal (z-score),Gal3S(b1-3)GlcNAc,-0.104
same,glycan array binding signal (z-score),[4],-0.101
same,glycan array binding signal (z-score),Gal3S(b1-4)Glc,-0.026
same,glycan array binding signal (z-score),Gal3S(b1-4)Glc6S,-0.09
same,glycan array binding signal (z-score),Gal3S(b1-4)GlcNAc,-0.013
same,glycan array binding signal (z-score),[5],0.037
same,glycan array binding signal (z-score),[6],0.229
same,glycan array binding signal (z-score),[7],0.178
same,glycan array binding signal (z-score),Gal3S4S(b1-4)GlcNAc,-0.1
same,glycan array binding signal (z-score),Gal3S6S(b1-4)GlcNAc,-0.145
same,glycan array binding signal (z-score),Gal3S6S(b1-4)GlcNAc6S,-0.126
same,glycan array binding signal (z-score),Gal4S(b1-4)GlcNAc,-0.249
same,glycan array binding signal (z-score),Gal4S6S(b1-4)GlcNAc,-0.245
same,glycan array binding signal (z-score),Gal6P(b1-4)GlcNAc,-0.273
same,glycan array binding signal (z-score),Gal6S(b1-3)GlcNAc,0.119
same,glycan array binding signal (z-score),Gal6S(b1-3)GlcNAc6S,-0.161
same,glycan array binding signal (z-score),Gal6S(b1-4)Glc,-0.123
same,glycan array binding signal (z-score),Gal6S(b1-4)Glc6S,0.307
same,glycan array binding signal (z-score),Gal6S(b1-4)GlcNAc,-0.15
same,glycan array binding signal (z-score),Gal6S(b1-4)GlcNAc6S,-0.294
same,glycan array binding signal (z-score),GalNAc(a1-3)Gal,0.117
same,glycan array binding signal (z-score),GalNAc(a1-3)GalNAc,0.061
same,glycan array binding signal (z-score),[8],-0.158
same,glycan array binding signal (z-score),[9],-0.276
same,glycan array binding signal (z-score),GalNAc(b1-3)Gal,0.084
same,glycan array binding signal (z-score),[10],-0.56
same,glycan array binding signal (z-score),[11],-0.078
same,glycan array binding signal (z-score),[12],-0.079
same,glycan array binding signal (z-score),GalNAc(b1-3)GalNAc,-0.227
same,glycan array binding signal (z-score),GalNAc(b1-3)GlcNAc,-0.067
same,glycan array binding signal (z-score),GalNAc(b1-4)Gal(b1-4)Glc,-0.085
same,glycan array binding signal (z-score),GalNAc(b1-4)GlcNAc,-0.055
